In all, about 33,000 sequences were measured (“E-score (-0.5 to 0.5)”: median about -0.056, highest 2% from about 0.38 on). Some of the results follow.
molecular target: Stb4 (UniProt P50104); assay: PBM E-score (8-mer binding enrichment) (E-score (-0.5 to 0.5)); higher = stronger / more preferred TF binding; most listed sequences are background and not binding sites; conditions: protein concentration: 200 nM; construct: GST-DNA-binding domain
Method in brief: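 Full-length yeast transcription factors or their DNA-binding domains, GST-tagged and expressed with PURExpress, were applied at about 100-200 nM to universal all-10-mer Agilent arrays. These arrays had been made double-stranded by primer extension on fresh or once-stripped slides. Detection used fluorescent anti-GST, normalisation used masliner, and E-scores for ungapped eight-base words pooled with reverse complements came from the Universal PBM Analysis Suite.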

Sequence	PBM E-score
ATAACAGC	-0.148
CTCTCAAA	-0.213
GGTAAGGA	-0.164
ATTGCTTG	-0.318
CGTCCACC	-0.101
AAAACAAT	-0.0733
GTGCCAAC	-0.0389
TAAACTTA	-0.0974
CTGTTTCA	-0.162
ATGGGAGA	-0.232
GGAGAACC	0.0794
AGGCGCGG	0.0899
AAAATCGT	0.047
CAGAGCGC	-0.233
AGATCCAT	0.00399
CTGTCTCA	-0.116
CAATATCC	0.333
AGGGCCAC	-0.252
AGTGCGGA	0.291
CCGGCTCC	0.306
GTTCGACA	-0.132
ACGTAATG	0.0114
AGCTTTGG	-0.119
AAACAGAT	-0.0667
AGGGTCCC	-0.0218

Sequence	PBM E-score
ATCCCTGA	-0.189
GCGAAGCC	-0.147
CCGAAAAG	0.384
AACAACGC	-0.19
CGGTCCAG	-0.0508
ATATATGA	-0.0862
AGCCTAAT	-0.149
AATATTAA	0.156
GACGTACC	-0.0237
ACGCTAGG	-0.217
CTTTCGTA	-0.177
GCCAGGCA	0.0465
CACCCTTA	-0.0807
ACGTCAAA	-0.137
GTATGATA	-0.0653
CGGGTACC	0.312
ATCCGTCC	0.296
GAAACTTC	0.119
ATTTCCAC	-0.144
ATTAAAGG	-0.0527
AGCTCTTG	-0.233
CCCTTACC	-0.174
ACGAACCG	0.0475
AGTGCTGA	-0.235
ACGGCGGC	-0.0767

Sequence	PBM E-score
AGCGTGAC	-0.032
CAGGAACC	0.0901
CTCTTCCC	-0.0672
CACGTCAA	-0.174
ATATCCAT	-0.0245
AATTGGTC	-0.0601
AGATCTAT	-0.131
ACGCCATG	-0.308
AAGCTTGG	-0.154
AACCACCT	0.214
CGCTGGTA	-0.264
AGGAGGAA	-0.166
AACTAGTC	-0.207
ATACTGGG	-0.128
AACGATCG	0.0115
ACCCAAGT	-0.111
AAGGGGGA	-0.0311
AGGTCTTG	0.0433
CGGAGGAA	0.273
TGGCAACA	-0.324
ATTGTATA	0.136
CAACAGGC	-0.18
AATCCAGT	-0.0778
TATTTCAA	-0.231
CCTTAGGA	-0.117

Sequence	PBM E-score
ACCGTTTG	-0.109
AGGGGTCC	-0.0921
AGGGCCCC	-0.174
CGCCCAGA	-0.135
TGAGCGCA	-0.235
CCTGGCGA	-0.204
TACCGTCA	0.107
AAAGTTGC	0.012
TAGCTCAA	-0.234
AAGTATCG	0.0466
CCCAGCCC	-0.133
CCGCTAAA	0.0917
GGATCCAA	0.24
CGCGGAAG	0.357
GCATTGCC	0.0539
GGAACGTA	0.111
AATAACTC	-0.0405
ACCGGTGC	0.163
AATAGTTC	0.0889
TTGCACAA	-0.231
CGATCATC	0.0839
AAGGCGGT	-0.187
AGGCTAGG	-0.293
AGCATGTG	-0.257
TACGCGAA	-0.0547

Sequence	PBM E-score
CATGATGA	-0.115
ATATTCAG	-0.0357
CCCACCAG	0.0126
ATGAGTCA	-0.329
AATCAGGG	-0.3
ACGGGACG	0.148
GTCAGCGA	-0.138
GCACCCCA	-0.0865
ATGAATTG	-0.117
AGGTCTAA	-0.0189
ACATGCCC	0.0171
ACAATCGC	0.105
CCCGTAGA	0.0742
ACCACGGT	-0.239
CAAGTCCG	0.235
AAATATGT	0.121
AAAATACT	0.106
CAATAGAC	-0.113
GAGAGGGA	-0.252
ATCCCTAC	0.00797
AGCTAACA	-0.168
AGGCCAAT	-0.0819
CCGTTAGG	-0.0244
ACATCCCA	-0.0846
GACGCCCA	-0.0691

Sequence	PBM E-score
AACTAAGG	-0.138
AAGGCGTG	-0.0449
GGCTTTGA	0.116
CGACCCTC	0.0659
GAGAAGCA	-0.105
CTAATAAA	-0.162
AGGCGAAC	-0.0728
TGTGAACA	0.0207
GTCGACAC	-0.074
CATCGTAC	-0.0164
TACGTAAA	-0.25
CACCTTAA	-0.141
GTGTTGGA	-0.162
CGGGTCAA	0.359
CCAGCCCC	-0.0533
TGGTCAAA	-0.0528
AATTATGG	-0.148
TGGGTCAA	-0.18
CGACGACG	0.0487
CATCCGCA	0.314
CTTTATTA	-0.231
AAACTTAT	0.179
AGGCAAGA	-0.222
ATCTCTTC	0.0477
ACTCGCGC	0.037

Sequence	PBM E-score
CGAAAATA	0.153
GAGAGTTA	-0.185
CCATTACC	0.132
AGATCAGC	0.0618
CAAGCTAG	-0.288
CGCGACGA	0.0313
AGGTCGCC	0.00267
AGAGTAGA	-0.0101
CAAACACA	-0.0699
CACGTTCC	0.0197
ATGAAGCG	-0.113
ACCGGTTC	0.216
CATCTAGC	-0.257
CCAATGGG	-0.161
AGACCTTA	-0.0348
TATAATAA	0.0527
TTTCCAAA	0.00512
AGATTACG	0.14
AATTTATG	0.165
CACGGCCG	0.225
GATTTTGA	0.15
CATACGCA	0.02
AGGACGAC	-0.151
GTTGATGA	-0.134
ACTCATGA	-0.138

Sequence	PBM E-score
TATATAAA	-0.023
ACCTCACC	-0.0803
CATTCTCA	0.0317
AACAGTAG	-0.0759
CGCCCCTA	0.101
CGGACTGA	0.132
GTAACACA	0.0469
CGTACTGA	-0.0158
CAAGAGAA	0.0429
ACGACGTC	-0.148
CGATCGGC	0.273
GGACTAAA	0.0483
AAAGTCGC	0.0621
AATCAGAG	-0.105
ATCTATCG	-0.0843
ATTTTCTG	-0.0503
AAGCCCCA	-0.168
ACGGAGCT	0.0791
AGCAAGTC	-0.169
ATAACTGC	-0.044
CGGCTTTA	0.264
GCCCCGCA	0.0354
ACAGCACA	-0.0101
AACTAACG	0.0873
ACCTGTCT	-0.197

Sequence	PBM E-score
ACTTAGCT	-0.251
ATCTGTAA	0.0162
CAATTGAG	0.0305
CTGCTTGC	0.0358
GCCTAGGA	-0.259
ACACCCCG	0.147
ATGGGCAG	-0.152
CCCGAAGA	0.403
CCAAACGA	-0.122
TACGGCCA	-0.0705
GCGAGAAC	-0.021
AGTCGACC	0.0176
GCATCCGA	0.466
ACGCTCGA	-0.198
GCTGCGCA	-0.0627
AGTTGTAG	-0.148
ACAAGGGA	-0.171
GCTAAGTA	-0.148
CCTTTGCA	-0.208

— the supplement of paper PMC3334620
